The values below come from PubChem BioAssay AID360 (National Center for Advancing Translational Sciences (NCATS), 2006).

Among all 48,000 compounds or so, about 550 (1.1%) were called active. Not shown: some 4% with an inconclusive outcome. Rule as the data show it: active = potency below about 15 µM; inconclusive = mostly about 16 µM to 33 µM; inactive = weaker than that. The list shows a part of the results.
Potency is read from the fitted curve at half-maximal effect.

Sequence of UniProt P04062 (P04062 whole entry, looked up): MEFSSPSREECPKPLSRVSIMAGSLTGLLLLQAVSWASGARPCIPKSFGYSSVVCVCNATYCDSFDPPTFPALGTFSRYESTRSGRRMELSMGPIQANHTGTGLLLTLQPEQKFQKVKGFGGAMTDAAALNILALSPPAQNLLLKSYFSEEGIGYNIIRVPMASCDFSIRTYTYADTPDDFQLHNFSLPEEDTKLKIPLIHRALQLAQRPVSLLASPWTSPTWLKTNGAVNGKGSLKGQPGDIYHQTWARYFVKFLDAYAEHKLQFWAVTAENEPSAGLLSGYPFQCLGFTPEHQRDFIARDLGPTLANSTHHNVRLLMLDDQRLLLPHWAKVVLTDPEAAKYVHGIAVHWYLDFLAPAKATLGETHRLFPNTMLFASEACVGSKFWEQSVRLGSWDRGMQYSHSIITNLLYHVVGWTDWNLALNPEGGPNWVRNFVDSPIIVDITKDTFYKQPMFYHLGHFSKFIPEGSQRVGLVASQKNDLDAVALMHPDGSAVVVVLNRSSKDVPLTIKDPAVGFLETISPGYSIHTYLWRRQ

The target in the assay is Lysosomal acid glucosylceramidase (Homo sapiens) (UniProt P04062). As to the kind of experiment: Glucocerebrosidase.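 Also: the screen sought inhibitors.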 To be noted: purified enzyme, resorufin glucoside fluorescence (screen aimed at inhibitors), 20 min. The procedure, abridged:
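Normal human glucocerebrosidase (0.2 nM final) was assayed with resorufin β-D-glucopyranoside (30 uM final) in 50mM citric acid/KH2PO4, 10mM sodium taurocholate, 0.01% tween-20, pH 5.9. Compounds were titrated; fluorescence (Ex 548, Em 600) read after 20 min at RT.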
In the case of `COc1cc(OC)cc(C(=O)NCCNC(=O)c2ccccc2)c1`, the Potency was inactive: > 76.9 µM.
For `COc1ccc(NC(=O)CN(c2ccccc2)S(=O)(=O)N(C)C)cc1OC`, the Potency was inactive: > 76.9 µM.
The figure for `CCOC(=O)N1CCN(C(=O)CS(=O)(=O)c2cn(Cc3cccc(F)c3)c3ccccc23)CC1` is inactive: > 76.9 µM; for `COc1cccc2cc(C(=O)Nc3cccc(C)n3)c(=O)oc12` it is inactive: > 76.9 µM.
In the case of `COc1cccc(-c2nnc(SCc3cccnc3)o2)c1`, the Potency is inactive: > 76.9 µM.
Take `Cc1ccc(-n2c(SCC(=O)NCC3CCCO3)nc3c(c2=O)SCC3)cc1` (configuration not stated): the Potency is inactive: > 76.9 µM.
In the case of `CCOc1ccccc1N(CC(=O)NCc1ccc(OC)cc1)S(C)(=O)=O` it was inactive: > 76.9 µM.
In the case of `Cc1nc(C)c(C(=O)C2=C(O)C(=O)N(CCCn3ccnc3)C2c2ccccc2)s1` (configuration not stated) it was inactive: > 76.9 µM.
In the case of `c1ccc(OCCN2C3=NCCN3c3ccccc32)cc1` it was “inactive”.
Take `O=C(COc1ncnc2ccccc12)NCCC1=CCCCC1`: the Potency is inactive: > 76.9 µM.
`Cc1noc(C)c1CSc1nc2sc(C)c(C)c2c(=O)n1-c1ccccc1`: the Potency is inactive: > 76.9 µM.
The figure for `CCC(=O)Nc1cc2nn(-c3ccc(OC)cc3)nc2cc1C` is inactive: > 76.9 µM.
Regarding `O=C(C1CCCN(Cc2cccnc2)C1)N1CCCCC1` (configuration not stated), the Potency was inactive: > 76.9 µM.
In the case of `COC(=O)c1c(C(=O)OC)c(C)n(Cc2ccco2)c1C`, the Potency was inactive: > 76.9 µM.
As for `CC(C)n1c(CN2CCN(C)CC2)nc2c1c(=O)n(C)c(=O)n2C`, the Potency is inactive: > 76.9 µM.
The figure for `COc1cccc(C(CC(=O)NCC2CCCO2)NS(=O)(=O)c2ccc(C)cc2)c1OC` (configuration not stated) is inactive: > 76.9 µM.
The figure for `CCOC(=O)N1CCC(NC(=O)CNS(=O)(=O)c2ccc(Br)s2)CC1` is inactive: > 76.9 µM; for `CCOc1ccc(OCCSc2nc(C)cc(=O)[nH]2)cc1` it is inactive: > 76.9 µM; for `Cc1cc(S(=O)(=O)NCCN2CCOCC2)c(C)s1` it is inactive: > 76.9 µM.
In the case of `Cc1ccccc1SCC(=O)NC1CCOC1=O` (configuration not stated) it was inactive: > 76.9 µM.
For `COc1cccc(NS(=O)(=O)c2cc(C)ccc2OC)c1`, the Potency is inactive: > 76.9 µM.
The figure for `Cc1ccc(N2CCn3c2nc2c3c(=O)n(CCc3ccccc3)c(=O)n2C)cc1` is inactive: > 76.9 µM; for `Cc1ccc(N(C(C)C(=O)Nc2ccc3c(c2)OCO3)S(C)(=O)=O)cc1` (configuration not stated) it is inactive: > 76.9 µM.
The figure for `O=C(O)CCCC(=O)Nc1ccccc1C(=O)N1CCCC1` is inactive: > 76.9 µM.
On to `Cn1c(=O)c2c(nc(Br)n2Cc2ccccc2Cl)n(C)c1=O`, for which the Potency was inactive: > 76.9 µM.
In the case of `Cn1c(=O)[nH]c(=O)c2c1nc(N1CCOCC1)n2CC(O)COc1ccc2ccccc2c1` (configuration not stated) it was inactive: > 76.9 µM; in that of `O=C(c1cc2ccccc2c(=O)o1)N1CCCc2ccccc21`, inactive: > 76.9 µM.
As for `Cc1ccc(-n2nnc3c(=O)n(CC(=O)NCC4CCCO4)cnc32)cc1` (configuration not stated), the Potency was inactive: > 76.9 µM.
For the compound `COc1ccc(-c2ccc(-c3noc(-c4ccccc4F)n3)c(OC)n2)cc1`, the Potency is inactive: > 76.9 µM.
The figure for `O=C(O)c1cccc(S(=O)(=O)N2CCSCC2)c1` is inactive: > 76.9 µM; for `COc1ccc(CN(C(=O)c2oc3ccccc3c2C)C2CCS(=O)(=O)C2)cc1` (configuration not stated) it is inactive: > 76.9 µM.
`CCCS(=O)(=O)N1CCN(c2ccccn2)CC1`: the Potency was inactive: > 76.9 µM.
In the case of `O=C(C1CCCN1S(=O)(=O)c1ccc(Cl)c(Cl)c1)N1CCOCC1` (configuration not stated) it was inactive: > 76.9 µM; in that of `CCCCCn1c(=O)[nH]c2cc(C(=O)O)ccc2c1=O`, inactive: > 76.9 µM.
The figure for `COc1cc2c(C)nc(C)c(C#N)c2cc1OC` is inactive: > 76.9 µM; for `COc1ccc(S(=O)(=O)N2CCOCC2)cc1C(=O)Nc1ccon1` it is inactive: > 76.9 µM; for `O=C(CSc1nccn1-c1cccc(Cl)c1)NC1CCCC1` it is inactive: > 76.9 µM.
In the case of `Cc1cc(NC(=O)CCCC(=O)OCC(F)(F)C(F)F)cc(C)c1C(=O)O` it was inactive: > 76.9 µM; in that of `COc1ccc(NC(=O)CCCNS(=O)(=O)c2cccs2)cc1`, inactive: > 76.9 µM; in that of `Cc1ccc(-c2nn3c(C)nnc3c3ccccc23)cc1S(=O)(=O)NCc1ccco1`, inactive: > 76.9 µM.
As for `CC(=O)c1cccc(NC(=O)N2CCCC2C(=O)NCc2ccccc2)c1` (configuration not stated), the Potency was inactive: > 76.9 µM.
The figure for `COc1cc(-c2nc(N)n[nH]2)cc(OC)c1OC` is inactive: > 76.9 µM; for `Cc1cc(C)nc(N2CCC(C(=O)NCCc3ccc(F)cc3)CC2)n1` it is inactive: > 76.9 µM; for `COC(=O)COc1ccc(S(=O)(=O)N2CCN(c3ccccc3F)CC2)cc1` it is inactive: > 76.9 µM.
The figure for `COc1ccc(OC)c(C(=O)CSc2nnc(Cc3cccs3)n2C)c1` is inactive: > 76.9 µM; for `CC1C(=O)C(C)C(c2ccc3c(c2)OCO3)NC1c1ccc2c(c1)OCO2` (configuration not stated) it is inactive: > 76.9 µM; for `COc1ccc(-n2c(CNC(=O)c3cc(OC)c(OC)c(OC)c3)n[nH]c2=S)cc1` it is inactive: > 76.9 µM.
The figure for `Cc1ccccc1N1C(=O)CC(N(O)c2ccccc2)C1=O` (configuration not stated) is inactive: > 76.9 µM; for `CCCOc1ccc(N)cc1N` it is inactive: > 76.9 µM.
`O=c1ccc(S(=O)(=O)N2CCC(Cc3ccccc3)CC2)c[nH]1`: the Potency is inactive: > 76.9 µM.
As for `Cc1ccc(S(=O)(=O)Cn2nnnc2C(C(C)C)N2CCc3ccccc3C2)cc1` (configuration not stated), the Potency was inactive: > 76.9 µM.
In the case of `CCOC(=O)Cc1c(C)nc2cc(-c3ccc(Cl)cc3)[nH]n2c1=O` it was inactive: > 76.9 µM; in that of `COc1cccc2cc(C(=O)C3=C(O)C(=O)N(CCN(C)C)C3c3ccc(F)cc3)oc12` (configuration not stated), inactive: > 76.9 µM.
The figure for `O=S(=O)(c1cccs1)N1CCc2ccccc2C1` is inactive: > 76.9 µM.
The figure for `O=C(Nc1ccc2c(c1)OCO2)N1CCN(C/C=C/c2ccccc2)CC1` is inactive: > 76.9 µM.
Take `Cc1ccc(C)c(NS(=O)(=O)c2ccc(OCC(=O)NCc3ccco3)cc2)c1`: the Potency was inactive: > 76.9 µM.
In the case of `COc1ccc(Cn2nnnc2C(c2ccccc2OC)N2CCC(C(N)=O)CC2)cc1` (configuration not stated) it was inactive: > 76.9 µM.
